# Some of the results follow.
# Legend:
# Experiment in all cases: glycan array binding signal (z-score within array); higher = stronger binding
# Details in all cases: glycan notation: IUPAC condensed, linker removed
# GalNAc(b1-3)GalNAc = target: GalNAc(b1-3)GalNAc
# Method in brief: (§1)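 The binding signal is a Z-score computed within each array and averaged over linkers. Arrays of the same protein sequence at different concentrations or buffers were also averaged together. Data originate from 3228 arrays in the Consortium for Functional Glycomics database, kept only where the protein sequence was available.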
# GalNAc(b1-4)GlcNAc = target: GalNAc(b1-4)GlcNAc
# Method in brief: as §1
# [1] = target: GalNAc(b1-4)GlcNAc(b1-2)Man(a1-3)[GalNAc(b1-4)GlcNAc(b1-2)Man(a1-6)]Man(b1-4)GlcNAc(b1-4)GlcNAc
# Method in brief: as §1
# GalNAc(b1-6)GalNAc = target: GalNAc(b1-6)GalNAc
# Method in brief: as §1
# Glc(a1-4)Glc = target: Glc(a1-4)Glc
# Method in brief: as §1
# Glc(a1-6)Glc(a1-6)Glc = target: Glc(a1-6)Glc(a1-6)Glc
# Method in brief: as §1
# Glc(b1-4)Glc = target: Glc(b1-4)Glc
# Method in brief: as §1
# Glc(b1-6)Glc = target: Glc(b1-6)Glc
# Method in brief: as §1
# GlcA(b1-3)Gal = target: GlcA(b1-3)Gal
# Method in brief: as §1
# GlcA(b1-3)GlcNAc = target: GlcA(b1-3)GlcNAc
# Method in brief: as §1
# GlcA(b1-6)Gal = target: GlcA(b1-6)Gal
# Method in brief: as §1
# [2] = target: GlcNAc(a1-3)Gal(b1-4)GlcNAc
# Method in brief: as §1
# [3] = target: GlcNAc(a1-4)Gal(b1-3)GlcNAc
# Method in brief: as §1
# [4] = target: GlcNAc(a1-4)Gal(b1-4)GalNAc
# Method in brief: as §1
# [5] = target: GlcNAc(a1-4)Gal(b1-4)GlcNAc
# Method in brief: as §1
# [6] = target: GlcNAc(a1-4)Gal(b1-4)GlcNAc(b1-3)Gal(b1-4)Glc
# Method in brief: as §1
# [7] = target: GlcNAc(a1-4)Gal(b1-4)GlcNAc(b1-3)Gal(b1-4)GlcNAc
# Method in brief: as §1
# [8] = target: GlcNAc(a1-4)Gal(b1-4)GlcNAc(b1-3)Gal(b1-4)GlcNAc(b1-3)Gal(b1-4)GlcNAc
# Method in brief: as §1
# [9] = target: GlcNAc(a1-4)Gal(b1-4)GlcNAc(b1-3)Gal(b1-4)[Fuc(a1-3)]GlcNAc(b1-3)Gal(b1-4)[Fuc(a1-3)]GlcNAc
# Method in brief: as §1
# [10] = target: GlcNAc(a1-6)Gal(b1-4)GlcNAc
# Method in brief: as §1
# [11] = target: GlcNAc(b1-2)Gal(b1-3)GalNAc
# Method in brief: as §1
# [12] = target: GlcNAc(b1-2)Man(a1-3)[GlcNAc(b1-2)Man(a1-6)]Man(b1-4)GlcNAc(b1-4)GlcNAc
# Method in brief: as §1
# [13] = target: GlcNAc(b1-2)Man(a1-3)[GlcNAc(b1-2)Man(a1-6)]Man(b1-4)GlcNAc(b1-4)[Fuc(a1-6)]GlcNAc
# Method in brief: as §1
# [14] = target: GlcNAc(b1-2)Man(a1-3)[GlcNAc(b1-4)][GlcNAc(b1-2)Man(a1-6)]Man(b1-4)GlcNAc(b1-4)GlcNAc
# Method in brief: as §1
# [15] = target: GlcNAc(b1-2)[GlcNAc(b1-4)]Man(a1-3)[GlcNAc(b1-2)Man(a1-6)]Man(b1-4)GlcNAc(b1-4)GlcNAc
# Method in brief: as §1
# [16] = target: GlcNAc(b1-2)[GlcNAc(b1-4)]Man(a1-3)[GlcNAc(b1-4)][GlcNAc(b1-2)Man(a1-6)]Man(b1-4)GlcNAc(b1-4)GlcNAc
# Method in brief: as §1
# [17] = target: GlcNAc(b1-2)[GlcNAc(b1-4)]Man(a1-3)[GlcNAc(b1-4)][GlcNAc(b1-2)[GlcNAc(b1-6)]Man(a1-6)]Man(b1-4)GlcNAc(b1-4)GlcNAc
# Method in brief: as §1
# [18] = target: GlcNAc(b1-2)[GlcNAc(b1-6)]Man(a1-6)[GlcNAc(b1-2)Man(a1-3)]Man(b1-4)GlcNAc(b1-4)GlcNAc
# Method in brief: as §1
# [19] = target: GlcNAc(b1-2)[GlcNAc(b1-6)]Man(a1-6)[GlcNAc(b1-2)Man(a1-3)][GlcNAc(b1-4)]Man(b1-4)GlcNAc(b1-4)GlcNAc
# Method in brief: as §1
# GlcNAc(b1-3)Gal = target: GlcNAc(b1-3)Gal
# Method in brief: as §1
# [20] = target: GlcNAc(b1-3)Gal(b1-3)GalNAc
# Method in brief: as §1
# GlcNAc(b1-3)Gal(b1-4)Glc = target: GlcNAc(b1-3)Gal(b1-4)Glc
# Method in brief: as §1
# [21] = target: GlcNAc(b1-3)Gal(b1-4)GlcNAc
# Method in brief: as §1
# [22] = target: GlcNAc(b1-3)Gal(b1-4)GlcNAc(b1-3)Gal(b1-4)GlcNAc
# Method in brief: as §1
# GlcNAc(b1-3)GalNAc = target: GlcNAc(b1-3)GalNAc
# Method in brief: as §1
# GlcNAc(b1-3)Man = target: GlcNAc(b1-3)Man
# Method in brief: as §1
# [23] = target: GlcNAc(b1-3)[GlcNAc(b1-4)][GlcNAc(b1-6)]GlcNAc
# Method in brief: as §1
binder,measurement,setting,value
Gal 3 (Canis lupus) (protein) MADSFSLNDALSGSGNPNPQGWPGPWGNQPAGAGGYPGASYPGAYPGQAPPGGYPGQAPPGGYPGQAPPGGYPGQAPPGGYPGQAPPGGYPGQAPPGTYPGPTAPAYPGPTAPGTQPGQPSGPGAYPPPGQPSAPGAYPAAGPFGIPAGPLTVPYDLPLPGGVKPRMLITILGTVRPSANRLALDFKRGNDVAFHFNPRFNEDNKRVIVCNTKLDNIWGKEERQAAFPFESGKPFKIQVLVESDHFKVAVNDAHLLQYNHRMKNLPEISKLGISGDIDLTSASYAMI,glycan array binding signal (z-score),GalNAc(b1-3)GalNAc,-0.259
same,glycan array binding signal (z-score),GalNAc(b1-4)GlcNAc,-0.237
same,glycan array binding signal (z-score),[1],-0.152
same,glycan array binding signal (z-score),GalNAc(b1-6)GalNAc,-0.146
same,glycan array binding signal (z-score),Glc(a1-4)Glc,-0.262
same,glycan array binding signal (z-score),Glc(a1-6)Glc(a1-6)Glc,-0.269
same,glycan array binding signal (z-score),Glc(b1-4)Glc,-0.261
same,glycan array binding signal (z-score),Glc(b1-6)Glc,-0.255
same,glycan array binding signal (z-score),GlcA(b1-3)Gal,-0.26
same,glycan array binding signal (z-score),GlcA(b1-3)GlcNAc,-0.187
same,glycan array binding signal (z-score),GlcA(b1-6)Gal,-0.272
same,glycan array binding signal (z-score),[2],-0.205
same,glycan array binding signal (z-score),[3],-0.262
same,glycan array binding signal (z-score),[4],-0.243
same,glycan array binding signal (z-score),[5],-0.265
same,glycan array binding signal (z-score),[6],-0.039
same,glycan array binding signal (z-score),[7],1.71
same,glycan array binding signal (z-score),[8],3.48
same,glycan array binding signal (z-score),[9],-0.164
same,glycan array binding signal (z-score),[10],-0.252
same,glycan array binding signal (z-score),[11],-0.259
same,glycan array binding signal (z-score),[12],-0.271
same,glycan array binding signal (z-score),[13],-0.251
same,glycan array binding signal (z-score),[14],-0.144
same,glycan array binding signal (z-score),[15],-0.259
same,glycan array binding signal (z-score),[16],-0.16
same,glycan array binding signal (z-score),[17],-0.15
same,glycan array binding signal (z-score),[18],-0.144
same,glycan array binding signal (z-score),[19],-0.148
same,glycan array binding signal (z-score),GlcNAc(b1-3)Gal,-0.264
same,glycan array binding signal (z-score),[20],-0.259
same,glycan array binding signal (z-score),GlcNAc(b1-3)Gal(b1-4)Glc,-0.242
same,glycan array binding signal (z-score),[21],0.005
same,glycan array binding signal (z-score),[22],1.06
same,glycan array binding signal (z-score),GlcNAc(b1-3)GalNAc,-0.263
same,glycan array binding signal (z-score),GlcNAc(b1-3)Man,-0.262
same,glycan array binding signal (z-score),[23],-0.266
